According to patent publication US20100260668A1 (published 2010):

T1: VEGF 1-165 aa (UniProt P15692 27-191)
T1 construct: Bought antigen coated on the ELISA plate
T1 sequence (looked up): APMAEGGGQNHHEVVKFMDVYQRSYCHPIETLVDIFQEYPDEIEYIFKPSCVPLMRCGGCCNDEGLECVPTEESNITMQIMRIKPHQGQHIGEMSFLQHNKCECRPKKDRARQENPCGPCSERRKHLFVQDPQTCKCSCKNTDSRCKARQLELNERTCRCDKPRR

T2: VEGF (UniProt P15692-4 27-191)
T2 construct: Bought reagent; also called vascular endothelial growth factor
T2 sequence (looked up): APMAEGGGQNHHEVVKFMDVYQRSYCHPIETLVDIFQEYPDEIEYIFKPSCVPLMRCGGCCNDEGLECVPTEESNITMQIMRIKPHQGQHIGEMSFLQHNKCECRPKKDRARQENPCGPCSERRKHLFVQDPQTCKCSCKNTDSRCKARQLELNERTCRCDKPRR


Tests used:
VEGF 1-165 aa = molecular target: T1, VEGF 1-165 aa; experiment: direct bind ELISA (C-term VD)
HGF-His tag = molecular target: T3, HGF-His tag (UniProt P14210 32-728); experiment: direct bind ELISA (N-term VD);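 also: ELISA screen of antibodies for binding to plate-immobilized target antigen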
Chain of HGF-His tag (P14210 32-728 limits assumed): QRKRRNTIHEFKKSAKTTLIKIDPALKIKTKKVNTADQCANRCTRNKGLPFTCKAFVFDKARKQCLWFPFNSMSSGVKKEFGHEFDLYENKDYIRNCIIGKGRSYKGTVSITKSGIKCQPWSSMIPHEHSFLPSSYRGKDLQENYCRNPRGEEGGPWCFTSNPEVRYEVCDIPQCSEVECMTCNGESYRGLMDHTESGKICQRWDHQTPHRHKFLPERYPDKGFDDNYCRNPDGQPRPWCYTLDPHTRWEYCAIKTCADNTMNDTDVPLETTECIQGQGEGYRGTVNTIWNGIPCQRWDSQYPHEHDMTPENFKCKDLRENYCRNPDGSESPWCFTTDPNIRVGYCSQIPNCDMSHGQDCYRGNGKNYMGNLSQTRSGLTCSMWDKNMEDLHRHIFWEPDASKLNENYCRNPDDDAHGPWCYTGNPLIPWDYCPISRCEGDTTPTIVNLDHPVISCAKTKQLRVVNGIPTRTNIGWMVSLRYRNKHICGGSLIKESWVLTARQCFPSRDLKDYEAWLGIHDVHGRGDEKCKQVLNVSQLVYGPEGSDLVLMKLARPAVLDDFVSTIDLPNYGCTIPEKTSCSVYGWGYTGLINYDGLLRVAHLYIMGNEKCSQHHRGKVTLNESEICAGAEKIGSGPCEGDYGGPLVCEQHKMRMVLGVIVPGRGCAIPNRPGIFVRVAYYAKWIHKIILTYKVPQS
T3 construct: Bought antigen coated on the ELISA plate; not shown: His tag

VEGF = molecular target: T2, VEGF; experiment: BIACORE SPR

Binder | EC50 (VEGF 1-165 aa) [pM] | EC50 (HGF-His tag) [pM] | Kd (VEGF) [pM] | koff (VEGF) [s⁻¹] | kon (VEGF) [M⁻¹ s⁻¹]
DVD641 (bispecific antibody, human IgG1, kappa, DVD-Ig; HC linker long, LC linker long; vectors V1/V2) heavy: QVQLVESGGGLVKPGGSLRLSCAASGFTFSDYYMSWIRQAPGKGLEWVSYISSSGSTIYYADSVKGRFTISRDNAKNSLYLQMNSLRAEDTAVYYCARDEYNSGWYVLFDYWGQGTLVTVSSASTKGPSVFPLAPEVQLVESGGGLVQPGGSLRLSCAASGYTFTNYGMNWVRQAPGKGLEWVGWINTYTGEPTYAADFKRRFTFSLDTSKSTAYLQMNSLRAEDTAVYYCAKYPHYYGSSHWYFDVWGQGTLVTVSS[omitted - human IgG1 constant region] light: DIQMTQSPSSVSASVGDRVTITCRASQGISSWLAWYQQKPGKAPNLLIYEASSLQSGVPSRFGGSGSGTDFTLTISSLQPEDFATYYCQQANGFPWTFGQGTKVEIKRTVAAPSVFIFPPDIQMTQSPSSLSASVGDRVTITCSASQDISNYLNWYQQKPGKAPKVLIYFTSSLHSGVPSRFSGSGSGTDFTLTISSLQPEDFATYYCQQYSTVPWTFGQGTKVEIKRTVAAPSVFIFPPSDEQLKSGTASVVCLLNNFYPREAKVQWKVDNALQSGNSQESVTEQDSKDSTYSLSSTLTLSKADYEKHKVYACEVTHQGLSSPVTKSFNRGEC | 41600 | 470 | – | – | –
DVD647 (bispecific antibody, human IgG1, kappa, DVD-Ig; HC linker long, LC linker short; vectors V1/V2) heavy: QVQLVESGGGLVKPGGSLRLSCAASGFTFSDYYMSWIRQAPGKGLEWVSYISSSGSTIYYADSVKGRFTISRDNAKNSLYLQMNSLRAEDTAVYYCARDEYNSGWYVLFDYWGQGTLVTVSSASTKGPSVFPLAPEVQLVESGGGLVQPGGSLRLSCAASGYTFTNYGMNWVRQAPGKGLEWVGWINTYTGEPTYAADFKRRFTFSLDTSKSTAYLQMNSLRAEDTAVYYCAKYPHYYGSSHWYFDVWGQGTLVTVSS[omitted - human IgG1 constant region] light: DIQMTQSPSSVSASVGDRVTITCRASQGISSWLAWYQQKPGKAPNLLIYEASSLQSGVPSRFGGSGSGTDFTLTISSLQPEDFATYYCQQANGFPWTFGQGTKVEIKRTVAAPDIQMTQSPSSLSASVGDRVTITCSASQDISNYLNWYQQKPGKAPKVLIYFTSSLHSGVPSRFSGSGSGTDFTLTISSLQPEDFATYYCQQYSTVPWTFGQGTKVEIKRTVAAPSVFIFPPSDEQLKSGTASVVCLLNNFYPREAKVQWKVDNALQSGNSQESVTEQDSKDSTYSLSSTLTLSKADYEKHKVYACEVTHQGLSSPVTKSFNRGEC | 25400 | 150 | – | – | –
DVD453 (bispecific antibody, human IgG1, kappa, DVD-Ig; N-term; AB069 (DLL4), C-term; AB014 (VEGF); HC linker long, LC linker short; also called DVD453H; DVD453L) heavy: QVQLVQSGAEVKKPGASVKISCKASGYSFTAYYIHWVKQAPGQGLEWIGYISSYNGATNYNQKFKGRVTFTTDTSTSTAYMELRSLRSDDTAVYYCARDYDYDVGMDYWGQGTLVTVSSASTKGPSVFPLAPEVQLVESGGGLVQPGGSLRLSCAASGYTFTNYGMNWVRQAPGKGLEWVGWINTYTGEPTYAADFKRRFTFSLDTSKSTAYLQMNSLRAEDTAVYYCAKYPHYYGSSHWYFDVWGQGTLVTVSS[omitted - human IgG1 constant region] light: DIVMTQSPDSLAVSLGERATISCRASESVDNYGISFMKWFQQKPGQPPKLLIYAASNQGSGVPDRFSGSGSGTDFTLTISSLQAEDVAVYYCQQSKEVPWTFGGGTKVEIKRTVAAPDIQMTQSPSSLSASVGDRVTITCSASQDISNYLNWYQQKPGKAPKVLIYFTSSLHSGVPSRFSGSGSGTDFTLTISSLQPEDFATYYCQQYSTVPWTFGQGTKVEIKRTVAAPSVFIFPPSDEQLKSGTASVVCLLNNFYPREAKVQWKVDNALQSGNSQESVTEQDSKDSTYSLSSTLTLSKADYEKHKVYACEVTHQGLSSPVTKSFNRGEC | – | – | 1.66 | 2.62e-07 | 158000
DVD459 (bispecific antibody, human IgG1, kappa, DVD-Ig; N-term; AB069 (DLL4), C-term; AB014 (VEGF); HC linker short, LC linker long; also called DVD459H; DVD459L) heavy: QVQLVQSGAEVKKPGASVKISCKASGYSFTAYYIHWVKQAPGQGLEWIGYISSYNGATNYNQKFKGRVTFTTDTSTSTAYMELRSLRSDDTAVYYCARDYDYDVGMDYWGQGTLVTVSSASTKGPEVQLVESGGGLVQPGGSLRLSCAASGYTFTNYGMNWVRQAPGKGLEWVGWINTYTGEPTYAADFKRRFTFSLDTSKSTAYLQMNSLRAEDTAVYYCAKYPHYYGSSHWYFDVWGQGTLVTVSS[omitted - human IgG1 constant region] light: DIVMTQSPDSLAVSLGERATISCRASESVDNYGISFMKWFQQKPGQPPKLLIYAASNQGSGVPDRFSGSGSGTDFTLTISSLQAEDVAVYYCQQSKEVPWTFGGGTKVEIKRTVAAPSVFIFPPDIQMTQSPSSLSASVGDRVTITCSASQDISNYLNWYQQKPGKAPKVLIYFTSSLHSGVPSRFSGSGSGTDFTLTISSLQPEDFATYYCQQYSTVPWTFGQGTKVEIKRTVAAPSVFIFPPSDEQLKSGTASVVCLLNNFYPREAKVQWKVDNALQSGNSQESVTEQDSKDSTYSLSSTLTLSKADYEKHKVYACEVTHQGLSSPVTKSFNRGEC | – | – | 1.57 | 5.66e-07 | 360000
DVD511 (bispecific antibody, human IgG1, kappa, DVD-Ig; N-term; AB073 (DLL4), C-term; AB014 (VEGF); HC linker short, LC linker short; also called DVD511H; DVD511L) heavy: EVQLQQSGPELEKPGASVKISCKASGYSFTGYNMNWVKQSNGKSLEWIGNIDPYFGGTNYNQKFKGKATLTVDKSSSTAYMQLKSLTSEDSAVYYCARNYDYDGGCFDYWGQGTTLTVSSASTKGPEVQLVESGGGLVQPGGSLRLSCAASGYTFTNYGMNWVRQAPGKGLEWVGWINTYTGEPTYAADFKRRFTFSLDTSKSTAYLQMNSLRAEDTAVYYCAKYPHYYGSSHWYFDVWGQGTLVTVSS[omitted - human IgG1 constant region] light: QAVVTQESALTTSPGETVTLTCRSSTGAVTTSNYANWVQEKPDHLFTGLIGGTNNRAPGVPARFSGSLIGDKAALTITGAQTEDEAIYFCALWYSNHWVFGGGTKLTVLGQPKAAPDIQMTQSPSSLSASVGDRVTITCSASQDISNYLNWYQQKPGKAPKVLIYFTSSLHSGVPSRFSGSGSGTDFTLTISSLQPEDFATYYCQQYSTVPWTFGQGTKVEIKRTVAAPSVFIFPPSDEQLKSGTASVVCLLNNFYPREAKVQWKVDNALQSGNSQESVTEQDSKDSTYSLSSTLTLSKADYEKHKVYACEVTHQGLSSPVTKSFNRGEC | – | – | 1010 | 0.00037 | 366000
DVD517 (bispecific antibody, human IgG1, kappa, lambda, DVD-Ig; N-term; AB073 (DLL4), C-term; AB014 (VEGF); HC linker long, LC linker long; also called DVD517H; DVD517L) heavy: EVQLQQSGPELEKPGASVKISCKASGYSFTGYNMNWVKQSNGKSLEWIGNIDPYFGGTNYNQKFKGKATLTVDKSSSTAYMQLKSLTSEDSAVYYCARNYDYDGGCFDYWGQGTTLTVSSASTKGPSVFPLAPEVQLVESGGGLVQPGGSLRLSCAASGYTFTNYGMNWVRQAPGKGLEWVGWINTYTGEPTYAADFKRRFTFSLDTSKSTAYLQMNSLRAEDTAVYYCAKYPHYYGSSHWYFDVWGQGTLVTVSS[omitted - human IgG1 constant region] light: QAVVTQESALTTSPGETVTLTCRSSTGAVTTSNYANWVQEKPDHLFTGLIGGTNNRAPGVPARFSGSLIGDKAALTITGAQTEDEAIYFCALWYSNHWVFGGGTKLTVLGQPKAAPSVTLFPPDIQMTQSPSSLSASVGDRVTITCSASQDISNYLNWYQQKPGKAPKVLIYFTSSLHSGVPSRFSGSGSGTDFTLTISSLQPEDFATYYCQQYSTVPWTFGQGTKVEIKRTVAAPSVFIFPPSDEQLKSGTASVVCLLNNFYPREAKVQWKVDNALQSGNSQESVTEQDSKDSTYSLSSTLTLSKADYEKHKVYACEVTHQGLSSPVTKSFNRGEC | – | – | 569 | 0.000303 | 533000
DVD523 (bispecific antibody, human IgG1, kappa, DVD-Ig; N-term; AB073 (DLL4), C-term; AB014 (VEGF); HC linker long, LC linker short; also called DVD523H; DVD523L) heavy: EVQLQQSGPELEKPGASVKISCKASGYSFTGYNMNWVKQSNGKSLEWIGNIDPYFGGTNYNQKFKGKATLTVDKSSSTAYMQLKSLTSEDSAVYYCARNYDYDGGCFDYWGQGTTLTVSSASTKGPSVFPLAPEVQLVESGGGLVQPGGSLRLSCAASGYTFTNYGMNWVRQAPGKGLEWVGWINTYTGEPTYAADFKRRFTFSLDTSKSTAYLQMNSLRAEDTAVYYCAKYPHYYGSSHWYFDVWGQGTLVTVSS[omitted - human IgG1 constant region] light: QAVVTQESALTTSPGETVTLTCRSSTGAVTTSNYANWVQEKPDHLFTGLIGGTNNRAPGVPARFSGSLIGDKAALTITGAQTEDEAIYFCALWYSNHWVFGGGTKLTVLGQPKAAPDIQMTQSPSSLSASVGDRVTITCSASQDISNYLNWYQQKPGKAPKVLIYFTSSLHSGVPSRFSGSGSGTDFTLTISSLQPEDFATYYCQQYSTVPWTFGQGTKVEIKRTVAAPSVFIFPPSDEQLKSGTASVVCLLNNFYPREAKVQWKVDNALQSGNSQESVTEQDSKDSTYSLSSTLTLSKADYEKHKVYACEVTHQGLSSPVTKSFNRGEC | – | – | 305 | 0.000175 | 573000
DVD529 (bispecific antibody, human IgG1, kappa, lambda, DVD-Ig; N-term; AB073 (DLL4), C-term; AB014 (VEGF); HC linker short, LC linker long; also called DVD529H; DVD529L) heavy: EVQLQQSGPELEKPGASVKISCKASGYSFTGYNMNWVKQSNGKSLEWIGNIDPYFGGTNYNQKFKGKATLTVDKSSSTAYMQLKSLTSEDSAVYYCARNYDYDGGCFDYWGQGTTLTVSSASTKGPEVQLVESGGGLVQPGGSLRLSCAASGYTFTNYGMNWVRQAPGKGLEWVGWINTYTGEPTYAADFKRRFTFSLDTSKSTAYLQMNSLRAEDTAVYYCAKYPHYYGSSHWYFDVWGQGTLVTVSS[omitted - human IgG1 constant region] light: QAVVTQESALTTSPGETVTLTCRSSTGAVTTSNYANWVQEKPDHLFTGLIGGTNNRAPGVPARFSGSLIGDKAALTITGAQTEDEAIYFCALWYSNHWVFGGGTKLTVLGQPKAAPSVTLFPPDIQMTQSPSSLSASVGDRVTITCSASQDISNYLNWYQQKPGKAPKVLIYFTSSLHSGVPSRFSGSGSGTDFTLTISSLQPEDFATYYCQQYSTVPWTFGQGTKVEIKRTVAAPSVFIFPPSDEQLKSGTASVVCLLNNFYPREAKVQWKVDNALQSGNSQESVTEQDSKDSTYSLSSTLTLSKADYEKHKVYACEVTHQGLSSPVTKSFNRGEC | – | – | 332 | 0.000186 | 561000
